Data: PubChem BioAssay AID1347165 (National Center for Advancing Translational Sciences (NCATS), 2019)
Values joined by “and” are separate entries in the source; they are usually repeats but may differ in a detail not shown here. Equal entries are not always repeated. The whole screen tested about 220,000 compounds, of which about 5,700 (2.6%) were called active. Inconclusive means that the source gave no clear call. Such entries were picked first, then a sample of the others. The call rests on the fitted dose curve; in most records, active means well fitted inhibition curve with a large enough effect; inconclusive means small, poorly fitted or top-dose-only effect; inactive means no such curve, though single readings can be large or run the other way. Where the call is inconclusive, the potency comes from a doubtful curve fit.

The molecules below were run against Lysine-specific demethylase 5B (Homo sapiens) (UniProt Q9UGL1) (assay: Primary screen for KDM5B Histone Demethylases FDH-coupled qHTS). Conditions: FDH-coupled NADH fluorescence (FDH is formaldehyde dehydrogenase); activity change, negative = inhibition: at 57.7 µM (top of the series) unless noted.
Summary of the method: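 KDM5BΔAP (200 nM final) in 50 mM HEPES pH 7.5, 0.01% Tween-20 was preincubated 10 min at RT with compound over a concentration range. Substrate mix (H3K4me3 12.5 µM, α-KG 25 µM, Fe²⁺, ascorbate, NAD⁺, FDH) was added, and NADH fluorescence change over 30 min gave dose-response curves.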
Further: nearly all actives have a fitted effect of over 70% in size.
Potency means the concentration at half of the fitted maximal effect; tags describe the fitted curve by direction and shape.
Wherever activity change, negative = inhibition is given: 0% is about no effect.

Chain of UniProt Q9UGL1 (Q9UGL1 whole entry, looked up): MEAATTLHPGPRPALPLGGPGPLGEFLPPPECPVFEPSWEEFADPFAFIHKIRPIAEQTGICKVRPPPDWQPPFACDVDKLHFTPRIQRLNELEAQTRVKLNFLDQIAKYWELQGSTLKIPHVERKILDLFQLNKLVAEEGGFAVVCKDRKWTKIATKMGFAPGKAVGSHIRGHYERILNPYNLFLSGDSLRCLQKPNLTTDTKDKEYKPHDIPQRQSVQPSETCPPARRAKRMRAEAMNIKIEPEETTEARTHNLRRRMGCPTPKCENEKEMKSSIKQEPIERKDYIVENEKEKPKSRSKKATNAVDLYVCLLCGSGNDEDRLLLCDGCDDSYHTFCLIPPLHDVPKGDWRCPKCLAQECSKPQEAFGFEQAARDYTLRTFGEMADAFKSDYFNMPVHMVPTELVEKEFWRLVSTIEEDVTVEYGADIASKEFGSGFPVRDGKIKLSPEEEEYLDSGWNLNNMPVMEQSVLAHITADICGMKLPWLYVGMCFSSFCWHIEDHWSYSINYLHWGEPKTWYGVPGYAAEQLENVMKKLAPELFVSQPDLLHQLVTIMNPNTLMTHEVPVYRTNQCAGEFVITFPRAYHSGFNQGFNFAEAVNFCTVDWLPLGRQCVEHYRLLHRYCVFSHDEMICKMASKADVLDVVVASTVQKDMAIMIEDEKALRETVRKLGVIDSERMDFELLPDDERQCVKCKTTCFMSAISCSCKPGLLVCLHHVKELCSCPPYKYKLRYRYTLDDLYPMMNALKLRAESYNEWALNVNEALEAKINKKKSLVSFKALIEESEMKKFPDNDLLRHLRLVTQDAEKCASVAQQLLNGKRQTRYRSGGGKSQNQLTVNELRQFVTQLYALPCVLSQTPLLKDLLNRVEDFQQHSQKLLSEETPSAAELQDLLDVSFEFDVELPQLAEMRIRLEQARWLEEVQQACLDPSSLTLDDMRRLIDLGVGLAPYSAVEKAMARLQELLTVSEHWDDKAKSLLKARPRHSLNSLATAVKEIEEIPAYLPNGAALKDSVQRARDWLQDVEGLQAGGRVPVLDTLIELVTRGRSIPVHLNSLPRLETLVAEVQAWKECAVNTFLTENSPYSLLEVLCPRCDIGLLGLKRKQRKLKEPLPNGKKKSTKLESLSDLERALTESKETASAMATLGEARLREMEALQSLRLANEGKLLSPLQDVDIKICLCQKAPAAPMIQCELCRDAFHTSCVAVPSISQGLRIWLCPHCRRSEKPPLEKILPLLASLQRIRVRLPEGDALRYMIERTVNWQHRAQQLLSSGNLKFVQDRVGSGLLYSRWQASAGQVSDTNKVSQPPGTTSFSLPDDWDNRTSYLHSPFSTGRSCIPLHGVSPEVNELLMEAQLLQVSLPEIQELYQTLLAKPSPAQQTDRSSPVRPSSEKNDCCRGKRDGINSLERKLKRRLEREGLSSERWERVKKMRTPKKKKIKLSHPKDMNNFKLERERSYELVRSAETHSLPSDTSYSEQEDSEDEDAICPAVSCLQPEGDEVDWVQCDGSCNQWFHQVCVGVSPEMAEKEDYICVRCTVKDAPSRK

Row | SMILES | Potency | activity change, negative = inhibition
1 | CCNC(=O)C1CCN(C(=O)c2ccc3nc(-c4ccccc4)cn3c2)C1 (stereo not drawn) | active: 28.2 µM | –
2 | CCOc1ccc(NC(=O)N2CCN(C)C3(CCC(=O)N(C)CC3)C2)cc1 (stereo not drawn) | inactive | –
3 | CNC(=O)NC(=O)C(C)Nc1cccc(Cl)c1C (stereo not drawn) | inactive | –
4 | Cc1ccc(C2=C(O)C(=O)N(c3ccc(F)cc3)C2c2ccccc2)cc1 (stereo not drawn) | inconclusive: 35.5 µM [inhibitor, partial curve, poor fit] | –
5 | COC(=O)C1=CN(Cc2cccs2)C=C(C(=O)OC)C1c1cccc(O)c1 | inconclusive: 25.1 µM [inhibitor, partial curve, poor fit] | –
6 | Cc1ccc(S(=O)(=O)N2CCCCC2)cc1NC(=O)CSc1nc(N)cc(=O)[nH]1 | inconclusive: 28.2 µM [inhibitor, partial curve, poor fit] | –
7 | COc1ccc(NC(=O)CCCC2CCCCC2)c(OC)c1 | inactive | –
8 | CCc1ccc(-n2cccc2)cc1 | inactive | –
9 | COCCCNC(=O)c1cc(-c2ccc(OC)cc2)nc2ccccc12 | inconclusive: 22.4 µM [inhibitor, partial curve, poor fit] | –
10 | COCCn1cc2c3c(cccc31)CN(C(=O)c1ccc(C)c(C)c1)CC2 | inconclusive: 20 µM [inhibitor, single point] | –
11 | Cc1ccccc1-n1c2nc(=O)n(C)c(=O)c-2cc2ccccc21 | inconclusive: 28.2 µM [inhibitor, partial curve, poor fit] | –
12 | O=C(/C=C/c1cc(Br)ccc1O)c1ccco1 | inconclusive: 22.4 µM [inhibitor, partial curve, poor fit] | –
13 | COc1cc(OC)c(OC)cc1/C=C(/C#N)c1ccc(Cl)cc1 | inactive | –
14 | NCc1ccc(-c2ccc(O)cc2)cc1 | inconclusive: 14.1 µM [inhibitor, partial curve, poor fit] | –
15 | COc1ccc(COCC(O)CN(C)Cc2ccc(OC)c(OC)c2OC)cc1 (stereo not drawn) | inactive | –
16 | COc1ccc2nc(N/C(N)=N/S(C)(=O)=O)nc(C)c2c1 | inconclusive: 28.2 µM [inhibitor, partial curve, poor fit] | –
17 | CSc1ccccc1NC(=O)CN(C)C(C)C(=O)Nc1ccc(SC(F)F)cc1 (stereo not drawn) | inactive | –
18 | COc1cccc(N2CCN(c3ncnc4c3c(-c3ccccc3)cn4-c3ccc(F)cc3)CC2)c1 | inactive | –
19 | CC(C)CCNC(=O)c1cccc2c1CCN2S(=O)(=O)c1ccccc1F | inconclusive: 10 µM [inhibitor, partial curve, poor fit] | –
20 | Cc1ccc(-n2nnc(S(=O)(=O)c3ccc(Cl)cc3)c2C)cc1F | inactive | –
21 | CC(=O)N1CCCC(C(=O)NCCc2csc(-c3ccncc3)n2)C1 (stereo not drawn) | active: 22.4 µM | –
22 | O=C(Cn1nc(-c2cccs2)c2ccccc2c1=O)Nc1ccc(N2CCCCC2)cc1 | inactive | –
23 | O=C(c1ccc(OCc2cn3ccccc3n2)cc1)N1CCN(c2ccc(O)cc2)CC1 | inconclusive: 20 µM [inhibitor, partial curve, poor fit] | –

Row | SMILES | Potency | activity change, negative = inhibition
24 | CCC(C)NC(=S)NCCc1ccccc1 (stereo not drawn) | inactive | –
25 | CCc1noc(CN2CCC3(CC2)CN(CCc2ccccc2)C(=O)O3)n1 | inconclusive: 3.98 µM [inhibitor, single point] | –
26 | Cc1noc(C)c1-c1cnc2[nH]cc(CC(=O)N3CCOCC3)c2c1 | active: 35.5 µM | –
27 | COc1nc2c(cc1CNC(=O)c1ccc(F)cc1)C(=O)N(C1CCCC1)C2 | inconclusive: 25.1 µM [inhibitor, single point] | –
28 | CCOc1ccc(S(=O)(=O)NCCc2cn3ccccc3n2)cc1 | inconclusive: 31.6 µM [inhibitor, single point] | –
29 | O=C(Cc1c[nH]c2ncc(-c3cccc(Cl)c3)cc12)NCc1cccnc1 | inconclusive: 35.5 µM [inhibitor, partial curve, poor fit] | –
30 | C[C@]1(O)CCN(C(=O)CCc2c[nH]c3ccccc23)C[C@@H]1O | inactive | –
31 | COc1ccc(-c2nc(S(=O)(=O)c3ccc(C)cc3)c(N3CCCCC3)o2)cc1 | inconclusive: 22.4 µM [inhibitor, partial curve, poor fit] | –
32 | c1cc(-c2nc(C3CCOC3)nn2C2CCCCC2)co1 (stereo not drawn) | inactive | –
33 | O=C(COc1ccc(F)cc1)N1CCC2(CC1)NC(=O)N(c1ccc(F)cc1)N2 | inconclusive: 28.2 µM [inhibitor, partial curve, poor fit] | –
34 | CCCC#CC(C)(O)CNC(Cc1ccccc1)C(=O)O (stereo not drawn) | inconclusive: 10 µM [inhibitor, partial curve, poor fit] | –
35 | CN1[C@@H](CCC(=O)NCc2ccc(F)cc2)CNC(=O)[C@@H]2[C@H]1CCN2Cc1cccs1 | inconclusive: 22.4 µM [inhibitor, partial curve, poor fit] | –
36 | CC1CCCN1C(=O)c1cn2cc(-c3cccc(Cl)c3)n(CC3CC3)c(=O)c2n1 (stereo not drawn) | inactive | –
37 | Cc1ccc(CSc2nc3cccnc3n2Cc2ccc(C(=O)NC3CCCCC3)cc2)cc1 | inconclusive: 12.6 µM [inhibitor, partial curve, poor fit] | –
38 | Cc1ccc(CCNC(=O)c2cc(C)nc3c(C)cccc23)cc1 | inconclusive: 10 µM [inhibitor, full curve, poor fit] | –
39 | O=S(=O)(CCN1CCSCC1)c1ccc(Cl)cc1 | inconclusive: 31.6 µM [inhibitor, single point] | –
40 | CC(C)OCCCNc1ncnc2c1CN(C1CCNC1)C(=O)CN2C (stereo not drawn) | inconclusive: 28.2 µM [inhibitor, partial curve, poor fit] | –
41 | COc1ccc2[nH]c3c(c2c1)CCNC31CCN(C(=O)c2cccs2)CC1 | inactive | –
42 | CC1CCN(S(=O)(=O)c2csc(C(N)=O)c2)CC1 | – | inconclusive: -31.4% [inhibitor]
43 | CC(=O)NC(Cc1c[nH]c2ccccc12)C(=O)N1CCN(S(=O)(=O)c2ccc(F)cc2)CC1 (stereo not drawn) | inactive | –
44 | CCOC(=O)c1cnc(N2CCN(c3ccc(OC)cc3)CC2)c2ccccc12 | – | inconclusive: -35% [inhibitor]
45 | COCCN1CCCCCC(O)c2cc(C(=O)NCCc3ccncc3)ccc21 (stereo not drawn) | inconclusive: 35.5 µM [inhibitor, single point] | –
46 | O=C(Nc1ccc2c(c1)OCO2)c1cc2c(s1)-c1ccccc1OC2 | inconclusive: 31.6 µM [inhibitor, single point] | –

Row | SMILES | Potency | activity change, negative = inhibition
47 | O=C(OCC(=O)N1CCCC1=O)c1cc(-c2ccco2)nc2ccccc12 | inconclusive: 20 µM [inhibitor, partial curve, poor fit] | –
48 | O=C(CN1c2ccccc2S(=O)(=O)c2ccccc21)Nc1cccc(C(F)(F)F)c1 | inconclusive: 39.8 µM [inhibitor, single point] | –
49 | CC(C)(C)C(NC(=O)c1ccccc1)c1ccccc1 (stereo not drawn) | inactive | –
50 | O=C(N1CCOCC1)N1CCCC1c1nnc2n1CCNC2 (stereo not drawn) | inconclusive: 79.4 µM [inhibitor, partial curve] | –
51 | CN(C)C[C@@H]1CN(Cc2ccccc2)C[C@H]1NC(=O)c1ccncc1 | inactive | –
52 | Cc1ccc(Cl)cc1NC(=O)Cn1ccn2nc3c(c2c1=O)CCCCC3 | inconclusive: 35.5 µM [inhibitor, partial curve, poor fit] | –
53 | CCC(=O)Nc1cccc(-c2nc3cc(C)ccc3o2)c1 | inconclusive: 25.1 µM [inhibitor, partial curve, poor fit] and inconclusive: 22.4 µM [inhibitor, partial curve, poor fit] | –
54 | CCOc1cc(CNC(=O)c2ncoc2-c2ccc(OC)cc2)cc(OCC)c1OCC | inconclusive: 39.8 µM [inhibitor, single point] | –
55 | Cc1[nH]c2ccccc2c1CN1CCc2nc(N3CCN(C)CC3)[nH]c(=O)c2CC1 | inconclusive: 14.1 µM [inhibitor, partial curve, poor fit] | –
56 | COc1ccc(-n2nc(-c3ccccc3)n(CC(=O)N(C)CC(C)C)c2=O)cc1 | active: 31.6 µM | –
57 | CCc1ccc(C(=O)N2C[C@@H](CO)[C@H](c3nc(C)no3)C2)cc1 | inactive | –
58 | Cc1cccc(NC(=O)/C(C#N)=C/c2ccc(C)o2)c1 | inconclusive: 35.5 µM [inhibitor, single point] | –
59 | COC[C@@H]1CN(Cc2cnn(C)c2C)C[C@H]1C(=O)NC1CC1 | inactive | –
60 | CCOC(=O)c1ccc(NC(=O)CCc2nc3cccnc3n2Cc2cccs2)cc1 | inconclusive: 31.6 µM [inhibitor, partial curve, poor fit] | –
61 | COCCNC(=O)c1nc(-c2c(C)cccc2C)c2ccccn12 | active: 35.5 µM | –
62 | N#Cc1ccc(NC2CC(c3cc(N4CCC(O)C4)ncn3)C2)nc1 (stereo not drawn) | active: 31.6 µM | –
63 | COc1cc(C2CC(=O)Nc3c2c(=O)n(C)c2ncnn32)cc(OC)c1OC (stereo not drawn) | inconclusive: 17.8 µM [inhibitor, partial curve, poor fit] | –
64 | O=C(c1ccc(-c2ccccc2)cc1)N1CCN(CC2CC=CCC2)CC1 (stereo not drawn) | inconclusive: 25.1 µM [inhibitor, partial curve, poor fit] | –
65 | CCc1cccc(C)c1NC(=O)Cn1ccn2nc3c(c2c1=O)CCCCC3 | inconclusive: 35.5 µM [inhibitor, partial curve, poor fit] | –
66 | CCN1CCN(c2oc(-c3ccc(S(=O)(=O)N(CC)CC)cc3)nc2C#N)CC1 | inactive | –
67 | O=c1c2oc3ccccc3c2n(Cc2cccc(F)c2)c(=O)n1Cc1ccc2c(c1)OCO2 | inconclusive: 6.31 µM [inhibitor, partial curve, poor fit] | –
68 | COc1ccc(/C=C2\OC(=O)c3ccccc32)cc1OC | inconclusive: 22.4 µM [inhibitor, partial curve, poor fit] | –
